# Tests used:
# [1] = test system: N/C(=N\O)NCC(F)(F)C[C@H](N)C(=O)O; test: (§1) Activity of iNOS assessed as oxidation of oxyhemoglobin to methemoglobin by indirect spectral assay
# [2] = test system: N=C(N)NCC(F)(F)C[C@H](N)C(=O)O; test: as §1
# N=C(N)NCCC[C@H](N)C(=O)O = test: as §1
# [3] = test system: N=C(NO)NCCC[C@H](N)C(=O)O; test: as §1
substance,measurement,setting,value
"Nitric oxide synthase, inducible (Homo sapiens) (letters omitted)",Km,[1],328 µM
same,Km,[2],814 µM
same,Km,N=C(N)NCCC[C@H](N)C(=O)O,8.6 µM
same,Km,[3],52 µM

# — ChEMBL document CHEMBL1153920, “4,4-Difluorinated analogues of l-arginine and N(G)-hydroxy-l-arginine as mechanistic probes for nitric oxide synthase” (Bioorg Med Chem Lett, 2009)
